Data on one molecule can be found in patent US20230174604A1.

The target in the experiment is T1, IL-2Rβ IH-Biotin (biotin-labeled human IL-2Rβ, UniProt P14784 aa27-240, with C-terminal avi tag and His6 tag) (human), P14784.
T1 sequence: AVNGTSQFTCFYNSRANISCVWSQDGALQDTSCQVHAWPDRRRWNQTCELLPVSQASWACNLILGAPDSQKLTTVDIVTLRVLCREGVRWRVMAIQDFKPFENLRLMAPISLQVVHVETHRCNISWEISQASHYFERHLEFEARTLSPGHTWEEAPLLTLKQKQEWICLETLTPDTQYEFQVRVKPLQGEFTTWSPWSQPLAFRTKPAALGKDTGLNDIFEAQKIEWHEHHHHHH
Put plainly: ForteBio BLI, biotinylated receptor on SA sensor, 100 nM IL-2-FC in solution, 1:1 model (avidity). The settings on record: remark: other sources report otherwise. (In general: In BLI a coated tip is dipped into the sample, and binding shifts an interference pattern.)

B1: IL-2^3X-FC fusion protein (IL-2^.3X-2*(G4S)-FcLALA) (Fc fusion)
chain: APTSSSTKKTQLQLEHLLLDLQMILNGINNYKNPKLTDMLTFEFYMPKKATELKHLQCLERELKPLEEVLNLAQSKNFHLRPRDLISNINVIVLELKGSETTFMCEYADETATIVEFLNRWITFSQSIISTLTGGGGSGGGGS[here human IgG1 Fc with changes without letters]
modifications: here or on the partner: biotin on the avi tag (enzymatic labeling with BirA)
B1 showed a Kd of 16 nM.
